Among all 340,000 compounds or so, about 12,000 (3.5%) were called active. This list was built around the results that the source calls inconclusive (neither active nor inactive); the mix of calls is not that of the screen. Calls come from the whole dose curve; as a rule, active = well fitted inhibition curve with a large enough effect; inconclusive = small, poorly fitted or top-dose-only effect, or another doubt; inactive = no such curve, though single readings can be large or run the other way. Potencies of inconclusive entries are left out as doubtful fits.
Experiment: qHTS Assay for Inhibitors of Hepatitis C Virus (HCV)
Details: Huh7.5.1 HCVcc-Cre (HCVcc is cell-culture hepatitis C virus) infection, luciferase reporter, 44 h; activity change, negative = inhibition: at 41.8 µM (top of the series) unless noted
Summary of the method: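 Cells (1,000/well) were plated 4 h before compound, then infected with HCVcc-Cre virus (~0.5 moi). After 44 h further culture, infection was read as luciferase luminescence following a 15 min substrate incubation at room temperature.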
With `O=S(=O)(c1ccccc1F)N1CCN(Cc2cc3c(cc2O)OCO3)CC1` the “activity change, negative = inhibition” value was inactive: 15.2%. With `Cc1ccc(-n2c(C)c3c(C)nnc(C)c3c2C)cc1C` the Potency was inconclusive [inhibitor, single point]. With `CC(C)c1ccccc1-n1c(SCC(=O)N2CCc3ccccc3C2)nc2ccccc2c1=O` the Potency was active: 10 µM. With `CC(C(=O)N1CCN(C(=O)c2ccco2)CC1)n1sc2ccccc2c1=O` (centres undefined) the “activity change, negative = inhibition” value was inactive: -11%. With `CCCOc1ccccc1/C=C(\C#N)C(=O)Nc1cccc(C)n1` the Potency was inconclusive [inhibitor, single point]. With `CCc1nc2ccccc2c(C(=O)OCC(=O)N(C)Cc2ccccc2)c1C` the Potency was inconclusive [inhibitor, partial curve]. For `CCOC(=O)Cn1nnc2c(sc3nc4c(c(-c5ccc(Cl)cc5)c32)CCC4)c1=O`, the “activity change, negative = inhibition” value was inactive: 12%. With `O=C(c1ccc([N+](=O)[O-])s1)N1CCc2ccccc21` the Potency was inconclusive [inhibitor, partial curve]. For `NC(=O)c1c(NC(=O)c2cccnc2)sc2c1CCCC2`, the Potency was inconclusive [inhibitor, single point]. For `C=CCOC(=O)C1=C(C)NC(SCC(=O)OCC)=C(C#N)C1c1ccc(O)c(OC)c1` (centres undefined), the Potency was inconclusive [inhibitor, partial curve]. For `COc1ccc2nc(N3CCOCC3)cc(C)c2c1`, the Potency was inconclusive [inhibitor, partial curve]. For `CCC(C)(C)n1nnnc1C(c1ccc2ncccc2c1)N1CCN(Cc2ccc3c(c2)OCO3)CC1` (centres undefined), the “activity change, negative = inhibition” value was inactive: -4.93%. With `Cc1ccnc(N/C=C(\C#N)c2nc(-c3cccc(Br)c3)cs2)c1` the Potency was inconclusive [inhibitor, partial curve]. For `COc1ccc2c(c1)CCc1c(C(=O)N3CCCc4ccccc43)noc1-2`, the Potency was inconclusive [inhibitor, single point]. In the case of `CCCc1nc2ccc(NC(C)=O)cc2c(=O)n1Cc1ccc(Cl)cc1`, the “activity change, negative = inhibition” value is reported as inactive: -9.09%. For `O=C(O)c1ccccc1-c1ccccc1C(=O)Nc1ccccc1-c1ccccc1`, the “activity change, negative = inhibition” value was inactive: 14.9%. With `CN(C)c1ccc(/C=C/c2cc[n+](C)c3ccccc23)cc1` the Potency was active: 11.2 µM. For `CCN(CC)CCC(=O)N1c2ccccc2CCc2ccc(NC(=O)OC(C)C)cc21`, the Potency was inconclusive [inhibitor, single point]. In the case of `COc1ccccc1NC(=S)NC1CCCCCCCCCCC1`, the Potency is reported as active: 4.47 µM. With `C/C(CC(=O)N1CCN(C=O)CC1)=N\NC(=O)c1ccc([N+](=O)[O-])cc1` the “activity change, negative = inhibition” value was inactive: 9.67%. For `O=C(c1cccs1)N1CCCC(c2nc3c(nnn3Cc3c(Cl)cccc3Cl)c(=O)[nH]2)C1` (centres undefined), the “activity change, negative = inhibition” value was inactive: -12.8%. In the case of `CCN(C(=O)COC(=O)c1cc(-c2ccc(C)o2)nc2ccccc12)C1CCS(=O)(=O)C1` (centres undefined), the “activity change, negative = inhibition” value is reported as inactive: -27.8%. For `CN(C(=O)N1CCN(S(=O)(=O)c2ccccc2)CC1)c1ccccc1`, the “activity change, negative = inhibition” value was inactive: 13.4%. For `CCN(CC)S(=O)(=O)c1ccc(S(=O)(=O)N2CCC(N3CCCCC3)CC2)cc1`, the “activity change, negative = inhibition” value was inactive: -2.06%. In the case of `CCC1=Nc2cc(C(=O)NCc3ccco3)ccc2Sc2ccc(C)cc21`, the Potency is reported as inconclusive [inhibitor, full curve, poor fit]. In the case of `COCc1cc(C)nc(SCc2nc3ccccc3c(=O)[nH]2)c1C#N`, the “activity change, negative = inhibition” value is reported as inactive: -26.7%. For `CC(NC(=O)c1cccc(S(=O)(=O)N2CCN(Cc3ccccc3)CC2)c1)c1ccccc1Cl` (centres undefined), the Potency was inconclusive [inhibitor, full curve, poor fit]. In the case of `COc1ccc(CCC(=O)Nc2ccc(Cl)c(S(=O)(=O)N3CCCC3)c2)cc1`, the Potency is reported as active: 5.62 µM. In the case of `COc1ccccc1/C=C/C(=O)NCC(=O)N/N=C/c1cc(Br)ccc1OC`, the Potency is reported as inconclusive [inhibitor, single point]. In the case of `Cc1ccc(N2CCN(c3ccc(C)cc3)C2c2cccnc2)cc1`, the Potency is reported as inconclusive [inhibitor, single point]. For `CCOC(=O)N1CCC(Nc2c(NCCCOC)c(=O)c2=O)CC1`, the “activity change, negative = inhibition” value was inactive: 4.69%. With `O=C(CSc1nc2c(oc3ccccc32)c(=O)n1CC1CCCO1)NCc1ccc(F)cc1` (centres undefined) the Potency was inconclusive [inhibitor, single point]. For `Cc1cccc(N2CCN(C(=O)c3cccc(S(=O)(=O)N4CCOCC4)c3)CC2)c1C`, the Potency was inconclusive [inhibitor, single point]. In the case of `Cc1cc(C)nc(SCc2cn3c(C)cc(C)nc3n2)n1`, the Potency is reported as inconclusive [inhibitor, single point]. In the case of `CCC(CC)C(=O)Oc1c(C(=O)N(C)C)cccc1-c1ccccc1`, the “activity change, negative = inhibition” value is reported as inactive: -0.46%. With `Cc1ccccc1N1CCN(S(=O)(=O)Cc2ccccc2)CC1` the Potency was inconclusive [inhibitor, single point]. For `CCN(CC)C(=O)c1ccc(Oc2ccc([N+](=O)[O-])cc2Cl)cc1`, the Potency was inconclusive [inhibitor, single point]. For `O=S(=O)(Nc1cccc(-c2nc3cccnc3s2)c1)c1ccc2c(c1)OCCO2`, the Potency was inconclusive [inhibitor, single point]. For `CCN(c1ccc(OC)cc1)S(=O)(=O)c1ccc(-c2ccc(=O)[nH]n2)o1`, the “activity change, negative = inhibition” value was inactive: -16.1%. With `C(#Cc1ccccc1)CN1CCOCC1` the “activity change, negative = inhibition” value was inactive: 19.3%. For `O=c1cc(-c2ccccc2F)oc2ccccc12`, the Potency was inconclusive [inhibitor, single point]. With `CC(C)c1ccc(CCNC(=O)c2ccc([N+](=O)[O-])cc2)cc1` the Potency was active: 11.2 µM. For `COc1cccc(/C=C/c2ccc3cccc(O)c3n2)c1`, the Potency was inconclusive [inhibitor, single point]. For `O=C(NC(=S)Nc1ccccn1)c1ccccc1`, the “activity change, negative = inhibition” value was inactive: -17.9%. In the case of `C=CC[C@@H](CC(=O)N[C@H](CO)Cc1ccccc1)C(=O)N[C@H](C)COC(=O)[C@@H](CC=C)Cc1ccc(F)cc1`, the Potency is reported as inconclusive [inhibitor, full curve]. In the case of `COc1ccc(CCNC(=O)C2CCC(=O)N2CCc2ccccc2)cc1OC` (centres undefined), the “activity change, negative = inhibition” value is reported as inactive: 13.3%. With `Cc1c(NC(=O)CN2C(=O)NC(CCc3ccccc3)C2=O)c(=O)n(-c2ccccc2)n1C` (centres undefined) the “activity change, negative = inhibition” value was inactive: 7.42%. For `Cc1ccc(C2CC2c2n[nH]c(=S)n2-c2ccc(C)cc2)cc1` (centres undefined), the Potency was active: 25.1 µM. In the case of `Cc1ccc(-c2[nH]ncc2/C=N/n2c(COc3ccccc3)nc3ccccc3c2=O)cc1`, the Potency is reported as active: 11.2 µM. In the case of `CC(C)Oc1ccccc1OCCCOc1cccc2cccnc12`, the Potency is reported as inconclusive [inhibitor, single point]. For `Cc1ccc2c(c1)N(C(=O)CCC(=O)Nc1ccccc1Cl)CC(C)O2` (centres undefined), the “activity change, negative = inhibition” value was inactive: -23.8%. With `C=CCn1c(-c2cccc(S(=O)(=O)N3CCOCC3)c2)n[nH]c1=S` the “activity change, negative = inhibition” value was inactive: 19%. For `CCCCNC(=O)CN(C1CCCCC1)S(C)(=O)=O`, the “activity change, negative = inhibition” value was inactive: 12.7%. In the case of `Cc1cc(C(=O)N/N=C/c2ccc([N+](=O)[O-])s2)n[nH]1`, the Potency is reported as active: 10 µM. In the case of `CCOC(=O)C1=CN(Cc2cccc(F)c2)S(=O)(=O)N(CC)C1c1ccc(F)c(Cl)c1` (centres undefined), the Potency is reported as inconclusive [inhibitor, single point]. In the case of `CCOc1ccc(/C=N/NC(=O)c2cc(-c3ccccc3)nc3ccccc23)cc1O`, the “activity change, negative = inhibition” value is reported as inactive: -28.7%. With `CCc1cc2cccc(C)c2nc1SCC(=O)NNC(=O)c1ccco1` the Potency was inconclusive [inhibitor, partial curve, poor fit]. With `CC1CCc2nc(N)c(C#N)c(-c3cccnc3)c2C1` (centres undefined) the Potency was inconclusive [inhibitor, partial curve]. With `CC(C)[C@H]1C(=O)O[C@H](C(C)C)C(=O)N(C)[C@@H](C(C)C)C(=O)O[C@H](C(C)C)C(=O)N(C)[C@@H](C(C)C)C(=O)O[C@H](C(C)C)C(=O)N1C` the Potency was inconclusive [inhibitor, full curve]. With `CN(C)c1nc(Nc2ccccc2)nc(N(C)C)n1` the Potency was inconclusive [inhibitor, partial curve]. In the case of `COc1ccc(NC(=O)Cn2c(=O)cnc3ccccc32)cc1S(=O)(=O)N1CCCCC1`, the Potency is reported as inconclusive [inhibitor, partial curve]. For `CCCN1CCc2c(sc3nc(SCC)n(-c4ccc(OC)cc4)c(=O)c23)C1`, the Potency was inconclusive [inhibitor, partial curve]. For `COc1cc2[nH]c(C(=O)NCCc3ccccc3)cc2c(OC)c1OC`, the Potency was inconclusive [inhibitor, partial curve]. For `O=S(=O)(c1cccc(-c2nnc(SCc3nc4ccccc4s3)o2)c1)N1CCOCC1`, the Potency was inconclusive [inhibitor, partial curve]. For `O=C(Nc1ccccc1-c1ccccc1)C1CCC1`, the “activity change, negative = inhibition” value was inactive: 2.09%. With `COc1ccccc1NC(=O)COc1ccc2ccccc2c1` the Potency was inconclusive [inhibitor, partial curve]. For `C/C(=C\c1ccccc1)CN1CCN(C)CC1`, the “activity change, negative = inhibition” value was inactive: -8.57%. In the case of `CCOC(=O)c1sc(-c2ccc(Cl)cc2Cl)nc1O`, the “activity change, negative = inhibition” value is reported as inactive: 9.83%. In the case of `COc1cc(-c2nc(-c3ccc(NC(=O)c4ccc(Br)o4)cc3)no2)cc(OC)c1OC`, the Potency is reported as inconclusive [inhibitor, full curve]. In the case of `O=C(Cc1cccc2ccccc12)NCC(=O)N1CCN(Cc2cccc(C(F)(F)F)c2)CC1`, the Potency is reported as active: 5.62 µM. In the case of `NS(=O)(=O)c1ccc(CCNC(=O)COc2ccc3c4c(c(=O)oc3c2)CCC4)cc1`, the “activity change, negative = inhibition” value is reported as inactive: -1.34%. With `O=C(c1ccc(CS(=O)c2ccc(F)cc2)o1)N1CCN(C2CCCCC2)CC1` (centres undefined) the “activity change, negative = inhibition” value was inactive: 2.82%. With `Cc1ccc(-c2ccc(C(=O)Nc3cccc(F)c3)o2)c2ccccc12` the Potency was inconclusive [inhibitor, single point]. With `Cc1nc(SC(C)C(=O)c2c(N)n(C)c(=O)n(C)c2=O)c2c(C)c(C)sc2n1` (centres undefined) the Potency was inconclusive [inhibitor, single point].
% is set by controls: 0 for no effect and ±100 for the full control effect; potency is the fitted concentration of half-maximal effect; tags give direction and shape of the fitted curve.
